# According to PubChem BioAssay (NCATS):
# Where “and” joins values, the source holds several entries; their conditions need not be identical. Identical values can stand only once. The inconclusive results got no clear call from the source; some entries with a clear call stand among them for comparison. Potencies of inconclusive entries are left out as doubtful fits. Calls of active or inactive are those of the source. Calls come from the whole dose curve; as a rule, active = well fitted inhibition curve with a large enough effect; inconclusive = small, poorly fitted or top-dose-only effect; inactive = no such curve, though single readings can be large or run the other way.
# Assay: Tertiary RLuc qRT-PCR qHTS assay for Zika virus inhibitors (AID 1347169); note: nearly all actives have a fitted effect of over 55% in size
# Conditions: infected Vero cells, reporter luminescence, 48-72 h; series mostly up to 45.9 µM
# Description: Avindra Nath, Ph.D., National Institute of Neurological Disorders and Stroke (NINDS), Bethesda, MD
# Radhakrishnan Padmanabhan, Ph.D., Georgetown University (GU), Washington D.C.
# Zika Virus causes congenital defects, including microcephaly and is associated with Guillain-Barre syndrome, eningoencephalitis and myelitis in infected adult. […] Using a target-based approach, we hope to establish a screening paradigm to uncover novel, cell-active NS2B-NS3 protease (Zika Virus) specific inhibitors from NCATS' collection of small molecules using qHTS.
# Four assay panel was created to identify potential Zika Virus inhibitors. Namely, (1) GU unlinked NS2B-NS3 AMC tagged protease qHTS, (2) GU unlinked NS2B-NS3 Rhodamine tagged protease qHTS, (3) NINDS linked NS2B-NS3 AMC tagged protease qHTS, (4) NINDS linked NS2B-NS3 Rhodamine tagged protease qHTS. Identified inhibitors were re-acquired and tested against secondary confirmatory, orthogonal, and counterscreens to exclude nonspecific inhibition.
# Early Translation Branch (ETB)
# National Center for Advancing Translational Sciences (NCATS), Rockville, MD
# National Institute of Health (NIH), Bethesda, Maryland
# 1536-well recombinant virus ZIKV-RLuc (Cambodian) Assay:
# For a follow-up assay, we adapted a high throughput orthogonal assay in 1536-well plate format to use the recombinant virus ZIKV-RLuc, in Vero cells. Briefly, three microL of Vero cells derived from a green monkey cell line, were dispensed Multidrop Dispenser into a solid bottom white 1,536-well plate at a concentration of 1,000 cells per well. The plate was incubated overnight in a CO2 incubator at 37 degrees C. Compounds were delivered as a 23 nL DMSO solution by Kalypsys pintool transfer. Following compound transfer, 2 microL of ZIKV-RLuc was added at an MOI of 1-2 and incubated in a CO2 incubator for 48-72 hrs at 37 degrees C. After sufficient incubation of infected cells in test plates, live cell Renilla luciferase substrate (Promega) was added. The luminescence signal was measured after 1-1.5 hrs exposure to substrate in ViewLux reader.
# Potency is the fitted concentration of half-maximal effect; tags give direction and shape of the fitted curve.
row,SMILES,Potency
1,Nc1nc(=S)c2[nH]cnc2[nH]1,active: 4.15 µM and active: 3.3 µM
2,COc1ccccc1-c1cccc(-c2c(O)c3cc(C#N)c(Cl)cc3[nH]c2=O)c1,"inconclusive [inhibitor, full curve]"
3,COc1cc2c(cc1-c1c(C)noc1C)ncc1[nH]c(=O)n([C@H](C)c3ccccn3)c12,active: 0.37 µM
4,CNC(=O)c1cccc(-c2ccc3c(N4CCOC[C@H]4C)nc(N4CCOC[C@H]4C)nc3n2)c1,"inconclusive [inhibitor, full curve]"
5,O=C(O)c1ccc(-n2nc(-c3ccccc3O)nc2-c2ccccc2O)cc1,active: 13.1 µM
6,Fc1ccc(C(c2ccc(F)cc2)N2CCN(CC=Cc3ccccc3)CC2)cc1,"inconclusive [inhibitor, partial curve]"
7,COCC(=O)NCC=Cc1ccc2ncnc(Nc3ccc(Oc4ccc(C)nc4)c(C)c3)c2c1,"inconclusive [inhibitor, partial curve]"
8,C[C@H]1COc2c(N3CCN(C)CC3)c(F)cc3c(=O)c(C(=O)O)cn1c23,inactive
9,COc1ccc(-c2ccc3ncc4c(c3c2)n(-c2ccc(N3CCNCC3)c(C(F)(F)F)c2)c(=O)n4C)cn1,"inconclusive [inhibitor, full curve]"
10,O=C(Nc1cccc2c(=O)cc(-c3nn[nH]n3)oc12)c1ccc(OCCCCc2ccccc2)cc1,"inconclusive [inhibitor, partial curve]"
11,COC(=O)Nc1nc2ccc(C(=O)c3ccccc3)cc2[nH]1,active: 0.829 µM
12,COc1cc(NCc2ccc3nc(N)nc(N)c3c2C)cc(OC)c1OC,"inconclusive [inhibitor, partial curve]"
13,CNC(=O)c1cc(Oc2ccc(NC(=O)Nc3ccc(Cl)c(C(F)(F)F)c3)cc2)ccn1,"inconclusive [inhibitor, full curve]"
14,CC(C)c1onc(-c2c(Cl)cccc2Cl)c1COc1ccc(C=Cc2cccc(C(=O)O)c2)c(Cl)c1,"inconclusive [inhibitor, partial curve]"
15,O=c1c(O)c(-c2ccc(O)cc2O)oc2cc(O)cc(O)c12,inactive
16,N#CC(c1ccc(Cl)cc1)c1c(Cl)cc(-n2ncc(=O)[nH]c2=O)cc1Cl (stereo not drawn),"inconclusive [inhibitor, partial curve]"
17,C[C@@H](NCc1cc2ccccc2[nH]1)c1cccc2ccccc12,"inconclusive [inhibitor, partial curve]"
18,c1cc(N[C@@H]2CCNC2)nc(-c2cnc3ccc(-c4cn[nH]c4)cn23)c1,inactive
